# Assay results published in PubChem BioAssay AID504467 (National Center for Advancing Translational Sciences (NCATS), 2011).
# Among all 330,000 compounds or so, about 7,700 (2.3%) were called active. About 26% were inconclusive and are not listed. The call rests on the fitted dose curve; in most records, active means well fitted inhibition curve with a large enough effect; inconclusive means small, poorly fitted or top-dose-only effect, or effect the other way; inactive means flat fitted curve, though single readings scatter. Only a part is listed here, and it is no random draw.
# Assay: qHTS screen for small molecules that inhibit ELG1-dependent DNA repair in human embryonic kidney (HEK293T) cells expressing luciferase-tagged ELG1; further: nearly all actives have a fitted effect of over 55% in size
# Conditions: HEK293T ELG1-luciferase reporter, luminescence, 16 h, DNA damage induced by 5-fluorouridine; series mostly up to 46.1 µM; activity change, negative = inhibition: at the top concentration
# Summary of the method: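 Reporter activity after DNA damage by 5-fluorouridine is monitored. Compound-treated cells incubate 16 hr at 37 °C, then ONE-Glo is added for 30 min before luminescence reading.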
# On the % scale 0 is the no-effect control and ±100 the full control effect; potency means the concentration at half of the fitted maximal effect.
Compound,Potency,"activity change, negative = inhibition"
Cc1c(/C=N/NC(=O)CNc2ccccc2)c2ccccn2c1C(=O)c1ccc(Cl)cc1,active: 23.1 µM,–
Cc1cn([C@H]2C=C[C@@H](CO)O2)c(=O)[nH]c1=O,–,inactive: 6.9%
O=C(NCc1ccccc1)C1=C[C@@H](c2ccc(Br)cc2)C[C@@H](OCc2ccc(CO)cc2)O1,–,inactive: 5.94%
NC1=NC[C@@H](Cc2ccc(O)cc2)N1CCCCC1CCCCC1,–,inactive: -1.88%
COC(=O)c1ccc(C(NC(=O)OCc2ccccc2)/C(F)=C/[C@@H](C)C(=O)NCc2ccc(OC)c(OC)c2)cc1 (stereo not given in full),active: 18.4 µM,–
CC(C)(C)OC(=O)C[C@H]1C/C=C\C[C@@H](CC(=O)N[C@@H](CO)Cc2ccccc2)C(=O)N2CCC[C@@H]2COC1=O,–,inactive: -19%
N/C(=N/O)c1ccccc1N1CCC(Cc2ccccc2)CC1,active: 14.6 µM,–
Cc1nn(Cc2ccc(Cl)cc2)c(C)c1NC(=O)c1c(-c2ccccc2)noc1C,active: 13 µM,–
CC(C)c1ccc(CCNC(=O)c2ccc([N+](=O)[O-])cc2)cc1,active: 9.2 µM,–
CCCCNc1cc(C)nc(NCc2ccccc2)n1,active: 14.6 µM,–
COc1ccc(/C=N/n2c(N)c(S(=O)(=O)c3cccs3)c3nc4ccccc4nc32)cc1OC,active: 2.59 µM,–
N#C/C(=C\c1ccc(N2CCOCC2)o1)C(=O)N1CCOCC1,–,inactive: 27.5%
COc1cc2c(cc1NC(=O)C(C)Sc1ccc(NC(C)=O)cc1)oc1ccccc12 (stereo not given),active: 16.4 µM,–
CCN(c1ccccc1)S(=O)(=O)c1ccc(OC)c(NC(=O)Cc2ccc(OC)c(OC)c2)c1,active: 18.3 µM,–
O=C(C[C@H]1C/C=C\CC[C@@H](Cc2ccc(F)cc2)C(=O)O[C@@H](c2ccccc2)CNC1=O)N[C@H](CO)Cc1ccccc1,–,inactive: 6.79%
O=C(C[C@H]1C/C=C/CC[C@H](Cc2ccc(F)cc2)C(=O)O[C@H](c2ccccc2)CNC1=O)NCCO,–,inactive: -6.94%
OCC[C@@H]1C[C@H](O)[C@@H](O)[C@]2(CCCc3ccccc3O2)O1,–,inactive: 4.02%
O=C(NCCN1CCOCC1)/C(=C\c1ccc(F)cc1)NC(=O)c1ccccc1,–,inactive: 15%
C[N+](C)(C)CC(O)CC(=O)O (stereo not given),–,inactive: -3.07%
O=c1c(O[C@H]2O[C@@H](CO)[C@H](O)[C@@H](O)[C@@H]2O)c(-c2ccc(O)cc2)oc2cc(O)cc(O)c12,–,inactive: 18.5%
O=C1N=C(N2CCN(c3ccccc3)CC2)S/C1=C/c1ccco1,–,inactive: -22.5%
COC(=O)c1sc(N)c(C(=O)OC)c1COC(=O)CCNS(=O)(=O)c1ccc(C)cc1,active: 10.3 µM,–
CC(=O)Nc1ccc(S(=O)(=O)N=S(C)C)cc1,–,inactive: 2%
C[C@@H]1COC(=O)[C@H](Cc2ccc(F)cc2)C/C=C\C[C@@H](CC(=O)NCCO)C(=O)N1,–,inactive: 8.4%
C[C@H](CO)N1C[C@H](C)[C@@H](CN(C)C(=O)Nc2ccc(C(F)(F)F)cc2)Oc2ccc(NC(=O)NC3CCCCC3)cc2C1=O,–,inactive: 1.79%
C[C@H]1COC(=O)[C@H](Cc2ccc(F)cc2)C/C=C\C[C@@H](CC(=O)N(CCO)Cc2ccccc2)C(=O)N1,–,inactive: -17.5%
CC1(C)Oc2ccc3ccc(=O)oc3c2[C@@H](O)[C@H]1O,–,inactive: 26.2%

Compound,Potency,"activity change, negative = inhibition"
COc1ccc(C2c3[nH]c4ccccc4c3C[C@H]3C(=O)N(c4ccccc4C(=O)N4CCC[C@@H]4C(=O)O)C(=O)N23)cc1 (stereo not given in full),–,inactive: 10.3%
O=C(C[C@@H]1C/C=C/CC[C@H](Cc2ccc(F)cc2)C(=O)O[C@H](c2ccccc2)CNC1=O)NCCO,–,inactive: -0.478%
COC(C[C@@H](O)CC(=O)[C@@H](C)OCc1ccccc1)OC,–,inactive: 6.84%
C/C=C(\C)C(=O)NCCN1C2=NC[C@H](Cc3ccccc3)N2C[C@H]1Cc1ccc(O)cc1,–,inactive: 19.4%
CCC(C)[C@H](NC(=O)N1CC(=O)Nc2ccccc21)C(=O)N[C@H](Cc1c[nH]c2ccccc12)C(=O)O (stereo not given in full),–,inactive: 22.1%
CC(=O)N1c2ccc(S(=O)(=O)N3CCC(C(=O)NCc4ccccc4Cl)CC3)cc2CC1C (stereo not given),active: 23.1 µM,–
O=C(C1CCN(c2ncnc3c2nc2n3CCCCC2)CC1)N1CCN(c2ccc(F)cc2)CC1,active: 7.3 µM,–
CCO[C@@H]1OC(C(=O)Nc2ccccc2)=C[C@H](c2ccc(Br)cc2)[C@H]1CCCO,–,inactive: -8.1%
C=CCOC(=O)/C(=C\c1cccc2ccccc12)NC(=O)c1ccccc1,–,inactive: 18.2%
c1ccc(-c2nc(NCc3ccco3)c3ccccc3n2)nc1,active: 7.31 µM,–
CC(C)(C)OC(=O)C[C@@H]1C/C=C\C[C@H](CC(=O)NCCO)C(=O)N2CCC[C@@H]2COC1=O,–,inactive: 13.7%
OCC[C@@H]1C[C@H](O)[C@@H](O)[C@@]2(Cc3ccccc3CO2)O1,–,inactive: 9.32%
OC(COc1cccc(OCC(O)CN2CCOCC2)c1)CN1CCOCC1 (stereo not given),–,inactive: 0.109%
CCOC(=O)[C@@H]1[C@H]2COc3cc(OC)ccc3[C@@H]2N2C(=O)N(c3ccc(C(F)(F)F)cc3)C(=O)[C@@]12C,–,inactive: 2.38%
COC(=O)/C=C1\S/C(=N/NC(=O)c2ccc(OC)cc2)NC1=O,–,inactive: -11.7%
CN1CCc2cccc3c2C1Cc1ccc(O)c(O)c1-3 (stereo not given),–,inactive: -18.3%
Cc1cccc2[nH]c3c(N4CCC5(CC4)OCCO5)ncnc3c12,active: 16.4 µM,–
O=C(Cn1cnc2cc([N+](=O)[O-])ccc2c1=O)Nc1cccc(S(=O)(=O)N2CCOCC2)c1,active: 3.26 µM,–
CC(C)(O)CC[C@@H](O)[C@](C)(O)[C@H]1CC[C@@]2(O)C3=CC(=O)[C@@H]4C[C@@H](O)[C@@H](O)C[C@]4(C)[C@H]3CC[C@]12C,–,inactive: -1%
C=CC[n+]1c(C)csc1Nc1ccc(C(=O)O)cc1,–,inactive: -1.92%
O=C(NC(Cc1ccccc1)C(=O)O)/C(=C/c1ccc(Cl)cc1)NC(=O)c1ccccc1 (stereo not given),–,inactive: 22.1%
OCC[C@@H]1C[C@@H](O)[C@H](O)[C@@]2(Cc3ccccc3CO2)O1,–,inactive: 0.732%
C=CCC1Cc2c(cccc2[N+](=O)[O-])C(CC=C)N1 (stereo not given),–,inactive: 16.1%
C[C@H](CO)N1C[C@H](C)[C@@H](CN(C)S(=O)(=O)c2ccccc2)Oc2ccc(NC(=O)C3CCCCC3)cc2C1=O,–,inactive: -19.8%
C/C(CCN1CCc2nc(-c3ccccc3)c(-c3ccccc3)cc2C1)=N\O[C@H](C)c1cn([C@H](CO)Cc2ccccc2)nn1,–,inactive: -21.1%
CC[n+]1c(/C=C2\C=C(C)CC(C)C2)sc2ccccc21 (stereo not given),–,inactive: -1.07%
COc1ccc(NC(=O)Cc2ccc(C)c(C)c2)cc1S(=O)(=O)N1CCCCC1,active: 25.9 µM,–

Compound,Potency,"activity change, negative = inhibition"
C[C@H](NC(=O)c1ncn(C)c1C(=O)N[C@@H](C)c1ccccc1)c1ccccc1,–,inactive: 7.09%
C[C@@H]1COC(=O)[C@H](CC(=O)OC(C)(C)C)C/C=C\C[C@H](CC(=O)NCCO)C(=O)N1,–,inactive: 19.6%
C=CCC[C@@H](Cc1ccc(F)cc1)C(=O)OC[C@@H](Cc1c[nH]c2ccccc12)NC(=O)[C@@H](CC=C)CC(=O)N[C@@H](CO)Cc1ccccc1,–,inactive: 2.76%
C[C@@H]1CN([C@H](C)CO)C(=O)c2cccc(NC(=O)c3ccncc3)c2O[C@@H]1CN(C)Cc1ccc(C(=O)O)cc1,–,inactive: 25.8%
C[C@@H]1CC[C@@]2(O[C@H](CCO)C[C@H](O)[C@H]2O)O1,–,inactive: 13.4%
COc1ccc(Cl)cc1C(=O)OCC(=O)Nc1sccc1C(N)=O,active: 23.1 µM,–
COc1ccccc1NC(=O)/C=C/C(=O)O,–,inactive: 1.85%
CN1CCN(C(=O)/C=C\c2ccc(Cl)cc2)CC1,–,inactive: 27.6%
O=c1[nH]c(=O)n(C2C[C@H](O)[C@@H](CO)O2)cc1C(F)(F)F (stereo not given in full),–,inactive: -1.55%
C/C=C(/C)C(=O)O[C@@H]1Cc2c(ccc3ccc(=O)oc23)OC1(C)C,–,inactive: -2.18%
C=CCN(CC=C)S(=O)(=O)c1ccc(C(=O)Nc2nnc(CSC)o2)cc1,active: 18.3 µM,–
O=S(=O)(NCc1ccccc1)c1ccc(S(=O)(=O)N(Cc2ccccn2)C2CCCC2)cc1,active: 20.6 µM,–
CC(C)(C)OC(=O)C[C@H]1C/C=C\C[C@@H](CC(=O)NCCO)C(=O)NC[C@@H](c2ccccc2)OC1=O,–,inactive: 15.1%
CCOC(=O)[C@@H]1[C@H]2COc3ccc(Br)cc3[C@@H]2N2C(=O)N(c3cccc(F)c3)C(=O)[C@@]12C,–,inactive: 14.8%
COc1cc([N+](=O)[O-])ccc1NC(=O)/C=C\C(=O)O,–,inactive: -10.8%
COc1ccc(/C=C(/NC(=O)c2ccccc2)C(=O)NCc2ccco2)cc1,–,inactive: -0.883%
CCCCCCSc1ccc([C@@H]2[C@@H]3C(=O)N(C)C(=O)[C@@H]3[C@]3(C(=O)OC)CCCCN23)cc1OC,–,inactive: -1.91%
Cc1ccc(CN2CCc3c(OCC(=O)Nc4cc(C)ccc4C)cccc3C2=O)cc1,active: 23.1 µM,–
COc1ccc(/C=C(/NC(=O)c2ccccc2Cl)C(=O)NCCCC(=O)O)cc1,–,inactive: 5.63%
Cc1ccc(C(=O)N/C(=C/c2ccco2)C(=O)NC2CCS(=O)(=O)C2)cc1 (stereo not given),–,inactive: -1.34%
COc1cc(CCCN2CCNC[C@H]2Cc2ccc(O)cc2)cc(OC)c1OC,–,inactive: 30%
COC(=O)[C@@]12CCCCN1[C@H](c1ccc(-c3ccc(F)cc3)c(OC)c1)[C@@H]1C(=O)N(C)C(=O)[C@@H]12,–,inactive: -16.5%
COc1c2ccoc2nc2c(OC)c(OCC(O)C(C)(C)O)ccc12 (stereo not given),–,inactive: 11.8%
CCOC(=O)[C@@H]1[C@H]2COc3cc(OC)ccc3[C@@H]2N2C(=O)N(c3ccccc3)C(=O)[C@]12C,–,inactive: -0.238%
C[C@@H]1COC(=O)[C@@H](CC(=O)OC(C)(C)C)C/C=C\C[C@@H](CC(=O)NCCO)C(=O)N1,–,inactive: 28.6%
C=CC[C@H](CC(=O)OC(C)(C)C)C(=O)OC[C@@H]1CCCN1C(=O)[C@H](CC=C)CC(=O)N[C@H](CO)Cc1ccccc1,–,inactive: -21.8%
